# Reference: PubChem BioAssay AID686978 (National Center for Advancing Translational Sciences (NCATS), 2013)
# Values joined by “and” are separate entries in the source; they are usually repeats but may differ in a detail not shown here. Equal entries are not always repeated. Out of some 420,000 compounds screened, about 64,000 (15%) were called active. Inconclusive results, whose numbers are uncertain, are shown with a selection of clear calls. Calls come from the whole dose curve; as a rule, active = well fitted inhibition curve with a large enough effect; inconclusive = small, poorly fitted or top-dose-only effect; inactive = flat fitted curve, though single readings scatter. No potency is given beside an inconclusive call; the fits are too rough.
# Assay: qHTS for Inhibitors of human tyrosyl-DNA phosphodiesterase 1 (TDP1): qHTS in cells in absence of CPT; note: nearly all actives have a fitted effect of over 55% in size
# Details: DT40 Tdp1-/- hTDP1 cells, no CPT, ATP luminescence, 48 h; activity change, negative = growth inhibition: at 46.2 µM (top of the series) unless noted
# How it was run: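 Seeded 400 DT40-hTDP1 cells/well (vehicle DMSO, no 20 nM CPT); pinned compounds; ≥48 hr at 37 °C; CellTiter-Glo luminescence as viability measure.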
# % is set by controls: 0 for no effect and ±100 for the full control effect; potency is the fitted concentration of half-maximal effect; tags give direction and shape of the fitted curve.
SMILES,Potency,"activity change, negative = growth inhibition"
Cn1c(CCNC(=O)c2ccccc2)nc2cc(NC(=O)C3CCCCC3)ccc21,"inconclusive [inhibitor, partial curve]",
CCOC(=O)C1=C(C)N(C[C@@H]2CC[C@@H](Cc3ccc(-c4ccccc4)cc3)O2)C(=O)NC1C1CC1 (stereo partly specified),active: 20.6 µM,
CN1CCC(=NNC(=O)c2ccc(N(Cc3ccc(Cl)cc3)S(C)(=O)=O)cc2)CC1,inactive,
COc1ccc(CNc2nc(S(=O)(=O)c3ccccc3)c(Cl)s2)cc1OC,"inconclusive [inhibitor, single point]",
COc1ccc(NC(=O)C2CCN(S(=O)(=O)c3cccc4nonc34)CC2)cc1,inactive,
O=C1c2cccc3c(N4CCCCC4)ccc(c23)C(=O)N1c1cccc(O)c1,"inconclusive [inhibitor, partial curve]",
CN(C)S(=O)(=O)c1ccc(Cl)c(NC(=O)CN2CCNC(=O)C2)c1,inactive,
COC(=O)c1oc(-c2ccc(Cl)cc2)nc1C,inactive,
COc1ccc(/C=N/NC(=O)CC2N=C(Cc3ccccc3)NNC2=O)cc1OC (stereo unspecified),inactive,
S=c1nc[nH]c2c1cnn2-c1ccccc1,inactive,
COc1ccc(CNC(=O)c2cc(S(=O)(=O)N3CCCCC3)ccc2N2CCOCC2)cc1OC,active: 9.2 µM,
CCOc1ccc(N=CNc2ccc(OCC)cc2)cc1,inactive,
COc1ccc(C(=O)CSc2nnc(C3CCCCC3)n2N)c(OC)c1,"inconclusive [inhibitor, single point]",
Cc1ccc(C(=O)c2coc3cc([N+](=O)[O-])c(O)c([N+](=O)[O-])c23)cc1,"inconclusive [inhibitor, single point]",
CN(CCOc1ccccc1)CC(=O)Nc1ccc(Cl)c(S(=O)(=O)N(C)C)c1,"inconclusive [inhibitor, single point]",
COCCNC(=O)c1c(N)n(-c2ccccc2)c2nc3ccccc3nc12,inactive,
CN1CCN(CC(O)COCCOc2ccc(Br)cc2)CC1 (stereo unspecified),"inconclusive [inhibitor, single point]",
CCCCN(CC)S(=O)(=O)c1ccc2c(c1)CCCN2C(C)=O,"inconclusive [inhibitor, single point]",
Cc1cc(NC(=O)CON=C(N)CC(=O)Nc2ccccc2Cl)ccc1Br,"inconclusive [inhibitor, single point]",
CNC(=O)C(=O)Nc1cc2c3c(c1)CCC(=O)N3CCC2,inactive,
COc1ccc(Cn2nnnc2CN2CCN(c3ccc(OC)cc3)CC2)cc1,"inconclusive [inhibitor, single point]",
CCCN(CC)C(CC)C(=O)Nc1c(C)cccc1C (stereo unspecified),inactive,
Cc1cc(C2=NNC(=NC3CC3)SC2)c(C)n1Cc1ccco1,active: 8.2 µM,

SMILES,Potency,"activity change, negative = growth inhibition"
C/C(=N/NC(=O)CN1CCN(S(=O)(=O)c2ccc(Br)cc2)CC1)c1cccnc1,"inconclusive [inhibitor, single point]",
CCC1=Nc2cc(C(=O)NC(C)c3ccccc3)ccc2Sc2ccc(Cl)cc21 (stereo unspecified),"inconclusive [inhibitor, single point]",
COc1ccc(OCc2nnc3n2N=C(c2ccc(Br)cc2)CS3)cc1,"inconclusive [inhibitor, single point]",
COc1ccc2c(c1)CCc1sc(NC(=O)c3ccc(Cl)cc3)nc1-2,active: 20.6 µM,
CCOC(=O)N1CCN(c2c(N3CCN(c4cccc(C)c4C)CC3)c(=O)c2=O)CC1,inactive,
Cc1cc(C(=O)CN2C(=O)NC3(CCCCC3)C2=O)c(C)n1Cc1ccco1,"inconclusive [inhibitor, single point]",
CC1CCN(S(=O)(=O)c2cn(CC(=O)Nc3ccc(F)c(Cl)c3)c(=O)c3ccccc23)CC1,active: 23.1 µM,
Cc1nn(CC(=O)NC2CCCC2)c(C)c1[N+](=O)[O-],inactive,
Cc1cccc(-n2cc(-c3ccccc3)c3c(NC(C)C)ncnc32)c1,active: 23.1 µM,
Cc1ccc(C(=O)c2c(C)oc3c2C(=O)C(=O)c2ccccc2-3)cc1,active: 2.59 µM,
Ic1ccc(N2CCN(Cc3c[nH]c4ncccc34)CC2)cc1,active: 9.2 µM and active: 17.8 µM and active: 3.26 µM,
O=C(c1ccc(Cl)c(S(=O)(=O)N2CCCC2)c1)N1CCCCC1,"inconclusive [inhibitor, single point]",
COc1cccc(NC(=O)c2cc(OC)c(OC)c(OC)c2Br)c1,inactive,
CCOC(=O)N1CCN(C(=O)CCc2ccc(S(=O)(=O)NCCc3ccccc3)cc2)CC1,,inconclusive: -35.2% [inhibitor]
CCOC(=O)C1=C(C)c2ccccc2OC1(C)C(=O)OCC (stereo unspecified),"inconclusive [inhibitor, single point]",
CSc1ccc(CCNC(=O)c2cc(-c3ccccc3)c(N3CCOCC3)s2)cc1,active: 16.4 µM,
CC(C)Oc1ccc(C(=O)Nc2nc3ccccc3[nH]2)cc1,active: 9.2 µM,
COc1ccc(-n2c(=O)c3ccccc3n(CC(=O)NCCc3ccccc3)c2=O)c(OC)c1,"inconclusive [inhibitor, partial curve, poor fit]",
C=CCOc1c(Br)cc(/C=C2/C(=O)ON=C2C)cc1OC,"inconclusive [inhibitor, single point]",
O=C1CN(c2nc(-c3cccs3)nc3sc4c(c23)CCCC4)CCN1,"inconclusive [inhibitor, partial curve]",
COc1ccc(-n2nnnc2C(c2ccccc2)N2CCN(C/C=C/c3ccccc3)CC2)cc1 (stereo unspecified),"inconclusive [inhibitor, partial curve, poor fit]",
CNC(=O)c1cc(C(=O)c2ccc(F)cc2C(F)(F)F)c[nH]1,"inconclusive [inhibitor, partial curve]",
CC1=NN(c2ccc(Cl)cc2)C(=O)C1C(c1cccc(O)c1)c1c(C)[nH]n(-c2ccc(Cl)cc2)c1=O (stereo unspecified),"inconclusive [inhibitor, single point]",
